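Growth conditions: 96-well plates. Treatment: test compound, 48 hours, 5 concentrations. Analysis: linear interpolation between bracketing concentrations; unreached endpoints set to highest concentration. GI50 marks 50% less growth.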 Calls of active or inactive are those of the source. Rule as the data show it: active = GI50 up to about 1.1 µM and inactive = higher. Peptide text beside a SMILES is read from it. * marks the point of attachment. Cbz = O=C(OCc1ccccc1)*; Boc = CC(C)(C)OC(=O)*
test system: NCI-H322M; experiment: DTP human tumour cell line panel, 48 h

Structure (SMILES) | GI50
CN(C)c1ccc(C(=C2C=CC(=[N+](C)C)C=C2)c2c(O)c(S(=O)(=O)[O-])cc3cc(S(=O)(=O)O)ccc23)cc1 | inactive: > 100 µM
COC(=O)C#CC1(O)C=CC(=O)C=C1 | inactive: 9.84 µM
CC(=O)C(CN1CCCCC1)C(c1ccccc1)c1c(O)c2ccccc2oc1=O (stereo unspecified) | inactive: > 100 µM
CC(=O)N(C)C(C(=O)N1CC(C)CC1C(=O)N(C)C1C(=O)NC(CC(C)C)C(=O)N2CC(C)CC2C(=O)NC(CC(C)C)C(=O)N(C)C(C(C)C)C(=O)N2CCCC2C(=O)N(C)C(CC(C)C)C(=O)NCC(=O)OC1C)C(C)C (stereo unspecified) | inactive: > 100 µM
CC1(C)C(O)c2ccccc2OC1N1CCN(C2Oc3ccccc3C(O)C2(C)C)CC1 (stereo unspecified) | inactive: > 100 µM
Cc1c(C)c(S(=O)(=O)N(CCCCCN)OCCCN)c(C)c2c1OC(C)(C)CC2 | inactive: 7.89 µM
O=C(O)c1cc(Cl)cc2c1NC1(N2)C(=O)Nc2ccccc21 (stereo unspecified) | inactive: > 100 µM
COc1cccc([C@H]2C/C(=N\NC(=O)C(=O)N[C@@H](C)c3ccccc3)c3ccccc3N2)c1 | active: 0.0942 µM
O=C1C(=O)C(CCCO)(CCCO)CCCCCCCCC1(CCCO)CCCO | inactive: > 100 µM
O=C(c1ccccc1)c1nc2ccc(Cl)cc2cc1C(Br)Br | active: 0.305 µM
COc1cc(Nc2cnc3cc(F)c(F)cc3n2)cc(OC)c1OC | inactive: > 100 µM
COc1ccc(C2Oc3cc(OC)c(OC)cc3C2CCl)cc1OC (stereo unspecified) | inactive: > 100 µM
O=c1cc(N2CCOCC2)[nH]c(=O)n1-c1ccc(F)cc1 | inactive: > 100 µM
CSC1=N/C(=C\c2ccco2)C(=O)N1CN1CCOCC1 | inactive: > 100 µM
COc1cc(C(Cc2ccccc2)NC(C)=O)oc(=O)c1 (stereo unspecified) | inactive: > 100 µM
C=CCNC(=S)N/C=C(/C(C)=O)C(=O)Nc1ccccc1C | inactive: > 100 µM
CN(C)CN1CSC(=S)N(CN(C)C)C1 | inactive: > 100 µM
COc1ccc2c(c1)c(=O)c1c(NCCN(C)C)ccc3c(=O)n(CCN(C)C)c(=O)n2c31 | active: 0.04 µM
CCOC(=O)CC(=O)ON(C)C(C)=O | inactive: > 100 µM
CCOC(=O)C1=C(Nc2ccc(Cl)cc2Cl)OCC1=O | inactive: > 100 µM
COC(=O)c1cc(C)ccc1/C=C1\Cc2cc(C)c(C)cc2C1=O | inactive: > 100 µM
Cc1ccc(/C=C2\Cc3c(C)cc(C)cc3C2=O)c(C(=O)O)c1 | inactive: 50.2 µM
CC(C)(C)c1ccc(OCCOCCOc2ccc(C(C)(C)C)cc2S(=O)(=O)Nc2ccc([N+](=O)[O-])cc2)c(S(=O)(=O)Nc2ccc([N+](=O)[O-])cc2)c1 | inactive: 31.3 µM

Structure (SMILES) | GI50
Cn1nc2ccc3nccc(N4CCN(CCO)CC4)c3c2n1 | inactive: > 100 µM
CC(=O)OC1COC(N2C(=O)C(=O)c3c(C)cc(Cl)nc32)C(OC(C)=O)C1OC(C)=O (stereo unspecified) | inactive: > 100 µM
NC(=O)c1ncn(CCN2CCN(C(=O)NCCCCCCNC(=O)N3CCN(CCn4cnc(C(N)=O)c4N)CC3)CC2)c1N | inactive: > 100 µM
Nc1nc(N)nc(-c2cnccn2)n1 | inactive: > 100 µM
COc1cc(OC)c2nc(C)c3c(c2c1)OCC3 | inactive: > 100 µM
COC(=O)c1cc2c(cc1Cl)Sc1nnc(Nc3ccccc3)n1S2(=O)=O | inactive: 6.81 µM
C[S+](C)CC1OC(n2cnc3c(N)ncnc32)C(O)C1O (stereo unspecified) | inactive: > 225 µM
COc1ccc(C2COc3c(ccc(OC)c3OC)C2=O)cc1OC (stereo unspecified) | inactive: > 100 µM
Cc1nn(-c2ccccc2)c2nc(S)cnc12 | inactive: > 100 µM
CCCCCCn1c(SCC)c2ccccc2c1-c1nc(F)nc(F)n1 | inactive: > 100 µM
O=C(O)c1nc2cc(C(F)(F)F)ccc2nc1Nc1ccc(Cl)c(Cl)c1 | inactive: 19.5 µM
COc1ccc(C23OCC(Cc4cc(OC)c(OC)cc42)C3CO)cc1OC (stereo unspecified) | inactive: > 100 µM
Cc1cc(N(CCC#N)CCC#N)ccc1/C=C(\NC(=O)/C=C/c1ccccc1)NC(=O)Nc1ccc(Cl)cc1 | inactive: > 100 µM
CCN1CCN(c2ccc(Nc3ccnc4ccc5c(nnn5C)c34)cc2)CC1 | inactive: 5.68 µM
COc1cc2cc3c4c(cc(OC)c(OC)c4c2cc1OC)CCN3C(=O)OCCBr | inactive: > 100 µM
O=C1C(Cl)=C(N2C(=O)CCC2=O)C(=O)c2ccccc21 | inactive: > 100 µM
NC(=O)c1ccc(NS(=O)(=O)c2ccc(N)cc2)nc1 | inactive: > 100 µM
O=C(c1ccc(Cl)cc1Cl)N(Cc1cccnc1)C(=S)N(Cc1cccnc1)C(=O)c1ccc(Cl)cc1Cl | inactive: 3.57 µM
NC(=S)N1N=C2CCCCCC[C@@H]2[C@H]1c1ccccc1 | inactive: 42.6 µM
COCC(C)(C)/N=C/N1Cc2cc3ccccc3nc2C1 | inactive: > 100 µM
CCOC(=O)C1(C(N)=O)C(=O)c2ccncc2C1=O (stereo unspecified) | inactive: > 100 µM
NCCO/C=C/C(N)C(=O)O (stereo unspecified) [AMINOETHOXYVINYLGLYCINE] | inactive: > 100 µM
NC(=O)c1ccccc1[N+](=O)[O-] | inactive: > 100 µM

Structure (SMILES) | GI50
C[Si](C)(C)/C(I)=C/CO | inactive: 28.5 µM
COc1cc(OC)cc(C(=O)Cc2c(C(=O)c3ccccc3)c3ccccc3n2C(=O)c2ccccc2)c1 | inactive: 50.5 µM
C=CN1C(=O)[C@H](Oc2ccccc2)[C@@H]1c1ccccc1 | inactive: 71.9 µM
CC(NC(=O)C(NC(=O)OCc1ccccc1)C(C)C)C(=O)NCC(=O)O (stereo not drawn) (Cbz-Val-Ala-Gly-OH; configuration not given here) | inactive: > 100 µM
CO/N=C1/c2sccc2[C@H](NC(=O)C(F)(F)F)[C@@H]1O | inactive: > 100 µM
N#C/C(=C/Sc1ccccc1)C(=O)O | inactive: 30.3 µM
COC(=O)[C@H]1COC(=O)N1 | inactive: > 100 µM
c1ccc2c(c1)c1c3c(c4c(n32)=NCCN4)CCC1 | inactive: 33.5 µM
O=C(NCc1ccc(Cl)c(Cl)c1)c1nc2ccccc2nc1NCc1ccc(Cl)c(Cl)c1 | inactive: > 100 µM
O=[N+]([O-])/C(C(Cl)=C(Cl)Cl)=C(\N1CCCCC1)n1cncn1 | inactive: 16.9 µM
CCOC(NC(=O)CC)(C(F)(F)F)C(F)(F)F | inactive: > 100 µM
Fc1cc2nc3n(c2cc1F)C(c1c(F)cccc1F)SC3 (stereo unspecified) | inactive: 80 µM
CC(/C=C/C(=O)c1sc(C(N)=S)nc1C)=C\c1ccccc1 | inactive: > 100 µM
CC(=O)OCC1OC(n2c(=S)n(-c3ccc([N+](=O)[O-])cc3)c(=O)c3ccccc32)C(OC(C)=O)C(OC(C)=O)C1OC(C)=O (stereo unspecified) | inactive: 35.7 µM
NCc1ccc(-c2ccc(CN)s2)s1 | inactive: > 100 µM
CC(C)NC(=O)OCc1c(COC(=O)NC(C)C)c(-c2cc[n+](COC(=O)Cc3ccccc3)cc2)n2c1CCC2 | inactive: > 100 µM
CC(C(=O)OCc1ccccc1)N(Cc1ccccc1)Cc1ccccc1 (stereo unspecified) | inactive: > 100 µM
Cc1nc2c(o1)/C(=N\c1ccccc1)c1ccccc1/C2=N/c1ccccc1 | inactive: > 100 µM
Cc1cc2cc3c(cc2c(-c2ccc([N+](=O)[O-])cc2)n1)OCO3 | inactive: 37.5 µM
COc1ccc(CC[N+]2(C)COc3cc4oc(=O)cc(C)c4cc3C2)cc1OC (stereo unspecified) | inactive: > 100 µM
C[N+](C)(C)/C=N\c1cccc2nsnc12 | inactive: > 100 µM
COc1cccc2c(NNc3ccccc3)c3ccc([N+](=O)[O-])cc3nc12 | inactive: 40.7 µM
CC(C)(C)c1cc(C(O)(C(F)(F)F)C(F)(F)F)c2c(c1)C(C(F)(F)F)(C(F)(F)F)OC(C(C)(C)C)N2 (stereo unspecified) | inactive: 3.48 µM

Structure (SMILES) | GI50
O=c1ccn([C@@H]2O[C@H](CO)[C@@H](O)[C@H]2F)c(=O)[nH]1 | inactive: > 100 µM
COC(=O)CCCN(C)c1nc(N)n[nH]1 | inactive: > 100 µM
COc1ccc(-n2sc3ncc([N+](=O)[O-])cc3c2=O)cc1 | inactive: > 100 µM
CC(C)c1[nH]nc(C(N)=O)c1/N=N/N(C)C | inactive: > 100 µM
COc1ccc(N2C(=O)C3c4[nH]c5ccc(OC)cc5c4C4CCC(c5ccccc5)CC4C3C2=O)cc1 (stereo unspecified) | inactive: > 60.7 µM
CC(C)(C)c1cc(C(C)(C)C)c2sc(=S)oc2c1O | inactive: 11.9 µM
CCCCCCCCCCCCCC(=O)OCC(CCS(=O)(=O)O[C@H]1CC[C@@]2(C)C(=CC[C@@H]3C2CC[C@]2(C)C(=O)CCC32)C1)OC(=O)CCCCCCCCCCCCC (stereo partly specified) | inactive: > 100 µM
C=C(C)[C@@H]1CC[C@]2(C)CC[C@]3(C)[C@H](CC[C@@H]4[C@@]5(C)CC[C@H](OC(=O)c6ccccc6)C(C)(C)[C@@H]5CC[C@]43C)[C@@H]12 | inactive: > 100 µM
O=C1CC(=O)N(C2CCCCC2)C(=O)N1c1ccccc1S(=O)(=O)Oc1ccccc1 | inactive: > 100 µM
CSc1scc2c1/C(=N/NC(N)=O)CCC2 | inactive: > 100 µM
CC1(C)Oc2ccc(NC(=O)CCC(N)C(=O)O)cc2O1 (stereo unspecified) | inactive: > 100 µM
CCOc1ccncc1[N+](=O)[O-] | inactive: > 100 µM
COC[C@@H](/N=C/C(C)(C)C)C(C)C | inactive: > 100 µM
CCCCCC(C[N+]1(C)CCOCC1)C(=O)/C=C/c1ccccc1 (stereo unspecified) | inactive: 7.05 µM
CNC(=O)NCCCCC(NC(C)=O)C(=O)NCc1ccccc1 (stereo unspecified) | inactive: > 100 µM
Cc1ccc(C)c(N2C(=O)C(=O)C(c3nc4ccccc4s3)/C(=N\c3cccc4c(=O)[nH][nH]c(=O)c34)C2=O)c1 (stereo unspecified) | inactive: > 100 µM
CC(=O)O/C(=C(/C#N)C(=O)O)C1C(C(=O)O)C(c2ccccc2[N+](=O)[O-])C=C(c2ccco2)N1c1ccncc1 (stereo unspecified) | inactive: 8.67 µM
COC(=O)C1=C(O)c2cc(OC)c(OC)c(OC)c2[C@H](c2cc(OC)c(OC)c(OC)c2)C1C(=O)OC (stereo partly specified) | inactive: 86.5 µM
CCOCC(NC(=O)C(CC(C)C)NC(=O)OC(C)(C)C)C(N)=O (stereo not drawn) (Boc-Leu-Ser(Et)-NH2; configuration not given here) | inactive: > 100 µM
COc1ccc(CCNC(=O)[C@H]2CCCC[C@@H]2CCO)cc1OC | inactive: > 100 µM
Cc1cc(C)nc(NS(=O)(=O)c2ccc(Nc3nncc(=O)n3N)cc2)n1 | inactive: 33.1 µM
CC1=C(O)C(=O)C2C(=O)C1C(C)C2c1ccc(Cl)cc1 (stereo unspecified) | inactive: > 100 µM

Source: ChEMBL document CHEMBL1201862, “PubChem BioAssay data set” (2004)
